# Assay results as given in the supplement of paper PMC8728848.
# The list shows a part of the results.
# Key:
# Assay in all cases: glycan array binding signal (z-score within array); higher = stronger binding
# Settings in all cases: glycan notation: IUPAC condensed, linker removed
# [1] = target: Neu5Ac(a2-3)Gal(b1-4)GlcNAc
# Method in brief: (§1)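 Arrays were curated from the Consortium for Functional Glycomics database, 3228 in total, and kept only where the protein sequence was available. Binding is expressed as a within-array Z-score. This score was averaged across arrays of the same protein sequence at different concentrations or buffers and across linkers, and negative values can be read as non-binding.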
# [2] = target: Neu5Ac(a2-3)Gal(b1-4)GlcNAc(b1-2)Man
# Method in brief: as §1
# [3] = target: Neu5Ac(a2-3)Gal(b1-4)GlcNAc(b1-2)Man(a1-3)[GlcNAc(b1-4)][Neu5Ac(a2-3)Gal(b1-4)GlcNAc(b1-2)Man(a1-6)]Man(b1-4)GlcNAc(b1-4)GlcNAc
# Method in brief: as §1
# [4] = target: Neu5Ac(a2-3)Gal(b1-4)GlcNAc(b1-2)Man(a1-3)[Neu5Ac(a2-3)Gal(b1-4)GlcNAc(b1-2)Man(a1-6)]Man(b1-4)GlcNAc(b1-4)GlcNAc
# Method in brief: as §1
# [5] = target: Neu5Ac(a2-3)Gal(b1-4)GlcNAc(b1-2)Man(a1-3)[Neu5Ac(a2-3)Gal(b1-4)GlcNAc(b1-2)Man(a1-6)]Man(b1-4)GlcNAc(b1-4)[Fuc(a1-6)]GlcNAc
# Method in brief: as §1
# [6] = target: Neu5Ac(a2-3)Gal(b1-4)GlcNAc(b1-2)Man(a1-3)[Neu5Ac(a2-6)Gal(b1-4)GlcNAc(b1-2)Man(a1-6)]Man(b1-4)GlcNAc(b1-4)GlcNAc
# Method in brief: as §1
# [7] = target: Neu5Ac(a2-3)Gal(b1-4)GlcNAc(b1-2)[Neu5Ac(a2-3)Gal(b1-4)GlcNAc(b1-4)]Man(a1-3)[GlcNAc(b1-4)][Neu5Ac(a2-3)Gal(b1-4)GlcNAc(b1-2)[Neu5Ac(a2-3)Gal(b1-4)GlcNAc(b1-6)]Man(a1-6)]Man(b1-4)GlcNAc(b1-4)GlcNAc
# Method in brief: as §1
# [8] = target: Neu5Ac(a2-3)Gal(b1-4)GlcNAc(b1-2)[Neu5Ac(a2-3)Gal(b1-4)GlcNAc(b1-4)]Man(a1-3)[GlcNAc(b1-4)][Neu5Ac(a2-3)Gal(b1-4)GlcNAc(b1-4)Man(a1-6)]Man(b1-4)GlcNAc(b1-4)GlcNAc
# Method in brief: as §1
# [9] = target: Neu5Ac(a2-3)Gal(b1-4)GlcNAc(b1-2)[Neu5Ac(a2-3)Gal(b1-4)GlcNAc(b1-6)]Man(a1-6)[Neu5Ac(a2-3)Gal(b1-4)GlcNAc(b1-2)Man(a1-3)]Man(b1-4)GlcNAc(b1-4)GlcNAc
# Method in brief: as §1
# [10] = target: Neu5Ac(a2-3)Gal(b1-4)GlcNAc(b1-2)[Neu5Ac(a2-3)Gal(b1-4)GlcNAc(b1-6)]Man(a1-6)[Neu5Ac(a2-3)Gal(b1-4)GlcNAc(b1-2)Man(a1-3)][GlcNAc(b1-4)]Man(b1-4)GlcNAc(b1-4)GlcNAc
# Method in brief: as §1
# [11] = target: Neu5Ac(a2-3)Gal(b1-4)GlcNAc(b1-3)Gal
# Method in brief: as §1
# [12] = target: Neu5Ac(a2-3)Gal(b1-4)GlcNAc(b1-3)Gal(b1-3)GlcNAc
# Method in brief: as §1
# [13] = target: Neu5Ac(a2-3)Gal(b1-4)GlcNAc(b1-3)Gal(b1-4)GlcNAc
# Method in brief: as §1
# [14] = target: Neu5Ac(a2-3)Gal(b1-4)GlcNAc(b1-3)Gal(b1-4)GlcNAc(b1-2)Man(a1-3)[Neu5Ac(a2-3)Gal(b1-4)GlcNAc(b1-3)Gal(b1-4)GlcNAc(b1-2)Man(a1-6)]Man(b1-4)GlcNAc(b1-4)GlcNAc
# Method in brief: as §1
# [15] = target: Neu5Ac(a2-3)Gal(b1-4)GlcNAc(b1-3)Gal(b1-4)GlcNAc(b1-3)Gal(b1-4)GlcNAc
# Method in brief: as §1
# [16] = target: Neu5Ac(a2-3)Gal(b1-4)GlcNAc(b1-3)Gal(b1-4)GlcNAc(b1-3)Gal(b1-4)GlcNAc(b1-2)Man(a1-3)[Neu5Ac(a2-3)Gal(b1-4)GlcNAc(b1-3)Gal(b1-4)GlcNAc(b1-3)Gal(b1-4)GlcNAc(b1-2)Man(a1-6)]GalNAc
# Method in brief: as §1
# [17] = target: Neu5Ac(a2-3)Gal(b1-4)GlcNAc(b1-3)Gal(b1-4)GlcNAc(b1-3)GalNAc
# Method in brief: as §1
# [18] = target: Neu5Ac(a2-3)Gal(b1-4)GlcNAc(b1-3)Gal(b1-4)GlcNAc(b1-3)[Neu5Ac(a2-3)Gal(b1-4)GlcNAc(b1-3)Gal(b1-4)GlcNAc(b1-6)]GalNAc
# Method in brief: as §1
# [19] = target: Neu5Ac(a2-3)Gal(b1-4)GlcNAc(b1-3)Gal(b1-4)GlcNAc(b1-6)[Gal(b1-3)]GalNAc
# Method in brief: as §1
# [20] = target: Neu5Ac(a2-3)Gal(b1-4)GlcNAc(b1-3)Gal(b1-4)[Fuc(a1-3)]GlcNAc
# Method in brief: as §1
# [21] = target: Neu5Ac(a2-3)Gal(b1-4)GlcNAc(b1-3)GalNAc
# Method in brief: as §1
# [22] = target: Neu5Ac(a2-3)Gal(b1-4)GlcNAc(b1-3)[Neu5Ac(a2-3)Gal(b1-4)GlcNAc(b1-6)]GalNAc
# Method in brief: as §1
# [23] = target: Neu5Ac(a2-3)Gal(b1-4)GlcNAc(b1-6)GalNAc
# Method in brief: as §1
# [24] = target: Neu5Ac(a2-3)Gal(b1-4)GlcNAc(b1-6)[Gal(b1-3)]GalNAc
# Method in brief: as §1
# [25] = target: Neu5Ac(a2-3)Gal(b1-4)GlcNAc(b1-6)[Neu5Ac(a2-3)Gal(b1-3)]GalNAc
# Method in brief: as §1
# [26] = target: Neu5Ac(a2-3)Gal(b1-4)GlcNAc6S
# Method in brief: as §1
# [27] = target: Neu5Ac(a2-3)Gal(b1-4)[Fuc(a1-3)]GlcNAc
# Method in brief: as §1
# [28] = target: Neu5Ac(a2-3)Gal(b1-4)[Fuc(a1-3)]GlcNAc(b1-2)Man
# Method in brief: as §1
# [29] = target: Neu5Ac(a2-3)Gal(b1-4)[Fuc(a1-3)]GlcNAc(b1-3)Gal
# Method in brief: as §1
# [30] = target: Neu5Ac(a2-3)Gal(b1-4)[Fuc(a1-3)]GlcNAc(b1-3)Gal(b1-4)GlcNAc
# Method in brief: as §1
# [31] = target: Neu5Ac(a2-3)Gal(b1-4)[Fuc(a1-3)]GlcNAc(b1-3)Gal(b1-4)[Fuc(a1-3)]GlcNAc(b1-3)Gal(b1-4)[Fuc(a1-3)]GlcNAc
# Method in brief: as §1
# [32] = target: Neu5Ac(a2-3)Gal(b1-4)[Fuc(a1-3)]GlcNAc(b1-3)GalNAc
# Method in brief: as §1
# [33] = target: Neu5Ac(a2-3)Gal(b1-4)[Fuc(a1-3)]GlcNAc(b1-6)[Gal(b1-3)]GalNAc
# Method in brief: as §1
# [34] = target: Neu5Ac(a2-3)Gal(b1-4)[Fuc(a1-3)]GlcNAc(b1-6)[Neu5Ac(a2-3)Gal(b1-3)]GalNAc
# Method in brief: as §1
# [35] = target: Neu5Ac(a2-3)Gal(b1-4)[Fuc(a1-3)]GlcNAc6S
# Method in brief: as §1
# [36] = target: Neu5Ac(a2-3)Gal6S(b1-4)GlcNAc
# Method in brief: as §1
# [37] = target: Neu5Ac(a2-3)Gal6S(b1-4)[Fuc(a1-3)]GlcNAc
# Method in brief: as §1
# [38] = target: Neu5Ac(a2-3)GalNAc
# Method in brief: as §1
binder,measurement,setting,value
EULS2 M4 (Oryza sativa) (protein) MVYCRANPNYAMTARNGAVVLAPANPKDEYQHWIKDMRWSTSIKDEEGYPAFALVNKATGQAIKHSLGQSHPVRLVPYNPEVMDESVLWTESRDVGNGFRCIRMVNNIYLNFDAFHGDKYHGGVRDGTDIVLWKWCEGDSLRWKIQPYYILEQKLISEEDLNSAVDHHHHHH,glycan array binding signal (z-score),[1],0.455
same,glycan array binding signal (z-score),[2],7.63
same,glycan array binding signal (z-score),[3],-0.468
same,glycan array binding signal (z-score),[4],-0.561
same,glycan array binding signal (z-score),[5],2.46
same,glycan array binding signal (z-score),[6],-0.426
same,glycan array binding signal (z-score),[7],-0.145
same,glycan array binding signal (z-score),[8],-0.603
same,glycan array binding signal (z-score),[9],1.08
same,glycan array binding signal (z-score),[10],-0.585
same,glycan array binding signal (z-score),[11],-0.404
same,glycan array binding signal (z-score),[12],-0.471
same,glycan array binding signal (z-score),[13],0.402
same,glycan array binding signal (z-score),[14],0.289
same,glycan array binding signal (z-score),[15],-0.561
same,glycan array binding signal (z-score),[16],1.02
same,glycan array binding signal (z-score),[17],-0.346
same,glycan array binding signal (z-score),[18],-0.381
same,glycan array binding signal (z-score),[19],-0.233
same,glycan array binding signal (z-score),[20],-0.593
same,glycan array binding signal (z-score),[21],-0.508
same,glycan array binding signal (z-score),[22],-0.544
same,glycan array binding signal (z-score),[23],-0.226
same,glycan array binding signal (z-score),[24],-1.27
same,glycan array binding signal (z-score),[25],-0.589
same,glycan array binding signal (z-score),[26],4.39
same,glycan array binding signal (z-score),[27],-0.045
same,glycan array binding signal (z-score),[28],0.213
same,glycan array binding signal (z-score),[29],-0.345
same,glycan array binding signal (z-score),[30],0.35
same,glycan array binding signal (z-score),[31],0.985
same,glycan array binding signal (z-score),[32],-0.591
same,glycan array binding signal (z-score),[33],-0.235
same,glycan array binding signal (z-score),[34],-0.441
same,glycan array binding signal (z-score),[35],-0.364
same,glycan array binding signal (z-score),[36],0.205
same,glycan array binding signal (z-score),[37],-0.15
same,glycan array binding signal (z-score),[38],0.083
